Experimental data as given in the supplement of paper PMC12217912.
Some of the results follow. The full chains were built here from the parent and the listed change. Values near 0.05 are background.

B1: TEV protease; numbered along this chain (parent)
chain: MGESLFKGPRDYNPISSSICHLTNESDGHTTSLYGIGFGPFIITNKHLFRRNNGTLVVQSLHGVFKVKDTTTLQQHLVDGRDMIIIRMPKDFPPFPQKLKFREPQREERICLVTTNFQTKSMSSMVSDTSCTFPSGDGIFWKHWIQTKDGQCGSPLVSTRDGFIVGIHSASNFTNTNNYFTSVPKNFMELLTNQEAQQWVSGWRLNADSVLWGGHKVFMVKPEEPFQPVKEATQL

Variants of: B1
Assay: raw area under fraction-flipped curve 0-4 h after induction (AUC4h, not background-subtracted), DNA-recorder readout of cleavage of the substrate (dimensionless); higher = more cleavage of the substrate by the protease variant
Details: temperature: 34 °C; time window: 0-4 h after rhamnose induction
Method: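 In vivo DNA recorder in E. coli TOP10(DE3) ΔrhaA at 34 °C. Each TEVp single-site mutant (parent TEVp 0) is paired with a single-site variant of the 7-mer TEVs (canonical ENLYFQ|S). The substrate sits between flexible linkers in a Bxb1-sfGFP-TEVs-SsrA fusion, so cleavage stabilises Bxb1 and speeds flipping of a recombination array, read by NGS. The value is the raw area under the fraction-flipped curve over 0-4 h after rhamnose induction (AUC4h), with ≥20 reads per time point. It is not background-subtracted; inactive controls average about 0.047.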
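Note: Bxb1 expression induced with 0.2% (w/v) L-rhamnose at OD600 near 0.5, cultures sampled hourly, flipped fraction per protease–substrate barcode pair counted by paired-end Illumina sequencing.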

Variant | area with substrate ENLYFQA | area with substrate ENLYFQC | area with substrate ENLYFQD | area with substrate ENLYFQE | area with substrate ENLYFQF | area with substrate ENLYFQG | area with substrate ENLYFQH | area with substrate ENLYFQI | area with substrate ENLYFQK | area with substrate ENLYFQL | area with substrate ENLYFQM | area with substrate ENLYFQN | area with substrate ENLYFQP | area with substrate ENLYFQR | area with substrate ENLYFQS | area with substrate ENLYFQV | area with substrate ENLYFQW | area with substrate ENLYFQY | area with substrate ENLYFQQ | area with substrate ENLYFQT
D11S | 0.108 | 0.124 | 0.071 | 0.0579 | 0.075 | 0.07 | 0.0963 | 0.0558 | 0.0664 | 0.0628 | 0.117 | 0.0764 | 0.0537 | 0.0648 | 0.108 | 0.0619 | 0.0591 | 0.0941 |  | 
D11A | 0.0899 | 0.0998 | 0.0551 |  |  |  |  | 0.085 | 0.0608 | 0.0599 | 0.0973 | 0.0791 | 0.06 | 0.0594 | 0.0971 | 0.0619 | 0.0828 | 0.0653 | 0.058 | 0.0663
D11Q | 0.0955 | 0.0837 |  |  | 0.0807 | 0.0973 | 0.0695 | 0.0649 | 0.068 | 0.069 | 0.0794 | 0.0727 | 0.0739 | 0.0591 | 0.0917 | 0.0562 |  | 0.0764 |  | 0.0601
D11L | 0.0717 | 0.0702 |  | 0.0658 | 0.0573 | 0.0804 | 0.0666 | 0.0633 | 0.0916 | 0.0637 | 0.0671 | 0.0726 | 0.0632 | 0.0617 | 0.0809 | 0.0665 | 0.0629 | 0.0647 | 0.0656 | 0.0657
E25P | 0.066 | 0.0443 | 0.0468 | 0.0644 | 0.0427 | 0.0755 | 0.045 | 0.0569 | 0.0463 | 0.0533 | 0.0518 | 0.0665 | 0.0565 | 0.0641 | 0.0634 | 0.047 | 0.0542 | 0.048 |  | 0.0597
H29E | 0.1 | 0.122 | 0.0738 |  |  | 0.0899 |  | 0.0555 | 0.0539 | 0.0615 | 0.0836 | 0.0586 |  | 0.0583 | 0.113 | 0.0732 | 0.0643 |  | 0.0677 | 0.0628
H29A | 0.0693 | 0.105 | 0.0693 |  |  | 0.098 | 0.116 | 0.0797 | 0.0624 | 0.0496 | 0.117 | 0.0712 | 0.0659 | 0.0532 | 0.105 | 0.0263 | 0.061 | 0.0548 | 0.0825 | 0.0683
H29D | 0.106 | 0.0887 | 0.0639 |  | 0.0772 | 0.14 |  | 0.0522 | 0.0863 | 0.0522 | 0.0801 |  | 0.057 | 0.0721 | 0.115 | 0.0627 | 0.0972 |  |  | 0.0642
H29L | 0.0917 | 0.11 | 0.0659 | 0.074 | 0.0861 | 0.106 | 0.0698 | 0.0562 |  | 0.0659 | 0.13 |  | 0.0552 | 0.0593 | 0.115 | 0.0654 |  | 0.0761 |  | 
I15C | 0.0975 | 0.113 | 0.0743 | 0.0909 | 0.0799 | 0.14 | 0.0764 | 0.0654 | 0.0599 | 0.05 | 0.0902 | 0.0863 | 0.0152 | 0.0558 | 0.0979 | 0.051 | 0.0639 | 0.0804 |  | 0.0488
G28C | 0.0991 | 0.103 |  |  |  |  | 0.0568 | 0.0623 | 0.0631 | 0.0698 | 0.0891 | 0.0474 | 0.042 | 0.0654 | 0.0861 | 0.0543 | 0.0627 | 0.0708 | 0.0626 | 0.0624
S17D | 0.105 | 0.147 | 0.078 |  |  | 0.118 | 0.0996 | 0.0532 | 0.0888 | 0.0601 | 0.117 |  | 0.0412 | 0.0614 | 0.105 | 0.0617 | 0.0678 |  | 0.0735 | 0.0703
S17Q | 0.124 | 0.153 | 0.0614 | 0.0472 |  | 0.14 |  | 0.0481 | 0.0572 | 0.0694 | 0.0944 | 0.085 | 0.0606 | 0.0542 | 0.115 | 0.0454 | 0.068 | 0.0599 |  | 0.0631
S17F | 0.104 | 0.124 | 0.0804 |  | 0.0507 | 0.0948 |  | 0.0595 | 0.0573 | 0.0565 |  | 0.0717 | 0.0785 | 0.0577 | 0.0949 | 0.0579 | 0.0483 | 0.0593 |  | 0.055
I19H | 0.0897 | 0.106 | 0.0573 |  |  |  | 0.0647 | 0.0476 | 0.0519 | 0.0591 | 0.0727 |  | 0.0423 | 0.0533 | 0.0941 | 0.049 | 0.062 |  |  | 0.0563
L22V | 0.0769 | 0.123 | 0.0596 | 0.0639 |  | 0.0934 | 0.056 | 0.0538 | 0.0567 | 0.0662 | 0.0762 |  |  | 0.0626 | 0.0954 | 0.0461 | 0.0714 | 0.0738 |  | 0.0625
L22W | 0.0546 |  |  |  | 0.0412 | 0.0415 |  |  |  | 0.106 |  | 0.0512 | 0.0424 |  | 0.0469 | 0.0461 | 0.0366 | 0.0401 |  | 0.0504
L22K | 0.0516 | 0.0444 | 0.047 |  | 0.0288 | 0.0586 | 0.0543 | 0.0406 | 0.0531 | 0.0485 |  | 0.0422 | 0.047 | 0.0469 | 0.0472 | 0.0518 | 0.0409 |  |  | 0.049
N13R | 0.102 | 0.12 |  | 0.062 | 0.0858 | 0.103 | 0.101 | 0.0674 | 0.0615 | 0.0701 | 0.11 | 0.089 | 0.0624 | 0.0669 | 0.113 |  | 0.0626 | 0.0738 | 0.05 | 0.0671
N13K | 0.093 | 0.115 | 0.0588 |  | 0.0792 | 0.0972 | 0.105 | 0.0546 | 0.0583 | 0.0565 | 0.087 | 0.07 |  | 0.055 | 0.0932 |  | 0.0621 | 0.0667 | 0.0389 | 0.07
S18R | 0.0776 | 0.0902 |  |  | 0.0772 |  | 0.0666 | 0.052 | 0.0624 | 0.0618 | 0.078 | 0.0533 |  | 0.0537 | 0.0903 |  | 0.0672 | 0.0515 |  | 0.0552
T30W | 0.112 |  |  | 0.061 | 0.0788 | 0.0924 |  | 0.0615 |  |  | 0.118 | 0.0614 | 0.0832 |  | 0.122 | 0.0585 |  | 0.078 |  | 0.0627
